# From PubChem BioAssay AID995 (National Center for Advancing Translational Sciences (NCATS), 2007)
# About 710 (0.99%) of roughly 72,000 compounds were called active. Inconclusive means that the source gave no clear call. Such entries were picked first, then a sample of the others. Calls come from the whole dose curve; as a rule, active = well fitted inhibition curve with a large enough effect; inconclusive = small, poorly fitted or top-dose-only effect; inactive = no such curve, though single readings can be large or run the other way. Potencies of inconclusive entries are left out as doubtful fits.
# Experiment: qHTS Assay for Inhibitors of the ERK Signaling Pathway using a Homogeneous Screening Assay; note: nearly all actives have a fitted effect of over 55% in size
# Details: HEK293-V1b, vasopressin-stimulated pERK AlphaScreen; activity, negative = inhibition: at 57.5 µM (top of the series) unless noted
# In short: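 Overnight-seeded V1b-HEK293 cells in 1% FBS got compound, then vasopressin (25 nM final, 5 min, 37C), then lysis buffer. AlphaScreen detection of phospho-ERK; activity normalized to basal and full-stimulation controls.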
# % is set by controls: 0 for no effect and ±100 for the full control effect; potency is the fitted concentration of half-maximal effect; tags give direction and shape of the fitted curve.
SMILES,"activity, negative = inhibition",Potency
COc1ccccc1CCn1c(=O)c(-c2cccc(F)c2)nc2cncnc21,inactive: -3.53%,–
O=C(Oc1ccnc2cc(Cl)ccc12)N1CCCCCC1,–,"inconclusive [inhibitor, single point]"
CCN1C(=S)SC(=O)C1=C1C=C(C)N(CCO)C(C)=C1,inactive: -26.9%,–
Cc1ccc(-n2c(C)nc3oc4ccccc4c(=O)c3c2=O)cc1,–,"inconclusive [inhibitor, single point]"
CCOC(=O)c1ccc(NC(=O)CSc2nc(SC)ns2)cc1,–,"inconclusive [inhibitor, partial curve]"
Cc1nc2cnc(Oc3ccccc3)nc2n(C)c1=O,–,"inconclusive [inhibitor, partial curve]"
O=C(Nc1cccc2cccnc12)[C@@H]1[C@@H](C(=O)O)[C@H]2CC[C@@H]1O2,inactive: -9.36% [at 11.5 µM],–
Cc1ccc(Oc2nsnc2N2CCOCC2)cc1,–,"inconclusive [inhibitor, partial curve]"
COc1ccc(-n2c(SCC#N)nnc2-c2cccnc2)cc1,–,"inconclusive [inhibitor, single point]"
CC(=O)c1c(C)[nH]c(C(=O)OC2CCOC2=O)c1C (stereo not given),–,"inconclusive [inhibitor, full curve, poor fit]"
CCOC(=O)C1CCCN(C/C(O)=C(\C#N)c2nc(-c3ccccc3)cs2)C1 (stereo not given),–,"inconclusive [inhibitor, partial curve]"
COc1ccc(-c2cc(=O)c3c(O)c(OC)c(OC)c(OC)c3o2)cc1OC,–,"inconclusive [inhibitor, partial curve]"
Cn1c(SCCCC(=O)c2ccccc2)nnc1-c1ccncc1,inactive: -8.64%,–
Cc1nc2cc(NC(=O)N3c4ccccc4CC3C)ccc2o1 (stereo not given),inactive: -28.3%,–
CCCCCOC(=O)c1[nH]c2c(c1C)C(=O)CC(c1ccco1)C2 (stereo not given),inactive: -11%,–
COC(=O)[C@@]1(Cc2ccc(F)cc2)[C@H]2c3cc(C(=O)N(C)C)n(Cc4cc(F)c(F)c(F)c4)c3C[C@H]2CN1C(=O)c1ccccc1,inactive: -0.0696%,–
CCOC(=O)c1c(C)n(OCc2ccccc2)c2ccc3c(no[n+]3[O-])c12,–,"inconclusive [inhibitor, single point]"
CC(=O)C=NCC(=O)O,inactive: 1.48% [at 11.5 µM],–
CCN1CCCC1Cn1cnc2c([nH]c3cccc(Cl)c32)c1=O (stereo not given),–,"inconclusive [inhibitor, single point]"
CCOC(=O)c1c(C)oc2c1c(C(c1ccncc1)N1CCOCC1)c(O)c1ccccc12 (stereo not given),inactive: -14.6%,–
